Source: the supplement of paper PMC8728848
The list shows a part of the results.

Experiments:
Experiment in all cases: glycan array binding signal (z-score within array); higher = stronger binding
Conditions in all cases: glycan notation: IUPAC condensed, linker removed
Gal3S(b1-4)Glc = target: Gal3S(b1-4)Glc
Procedure, shortened: (§1)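 The binding signal is a Z-score computed within each array and averaged over linkers. Arrays of the same protein sequence at different concentrations or buffers were also averaged together. Data originate from 3228 arrays in the Consortium for Functional Glycomics database, kept only where the protein sequence was available.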

Gal3S(b1-4)Glc6S = target: Gal3S(b1-4)Glc6S
Procedure, shortened: as §1

Gal3S(b1-4)GlcNAc = target: Gal3S(b1-4)GlcNAc
Procedure, shortened: as §1

[1] = target: Gal3S(b1-4)[Fuc(a1-3)]Glc6S
Procedure, shortened: as §1

[2] = target: Gal3S(b1-4)[Fuc(a1-3)]GlcNAc
Procedure, shortened: as §1

[3] = target: Gal3S(b1-4)[Fuc(a1-3)]GlcNAc6S
Procedure, shortened: as §1

Gal3S4S(b1-4)GlcNAc = target: Gal3S4S(b1-4)GlcNAc
Procedure, shortened: as §1

Gal3S6S(b1-4)GlcNAc = target: Gal3S6S(b1-4)GlcNAc
Procedure, shortened: as §1

Gal3S6S(b1-4)GlcNAc6S = target: Gal3S6S(b1-4)GlcNAc6S
Procedure, shortened: as §1

Gal4S(b1-4)GlcNAc = target: Gal4S(b1-4)GlcNAc
Procedure, shortened: as §1

Gal4S6S(b1-4)GlcNAc = target: Gal4S6S(b1-4)GlcNAc
Procedure, shortened: as §1

Gal6P(b1-4)GlcNAc = target: Gal6P(b1-4)GlcNAc
Procedure, shortened: as §1

Gal6S(b1-3)GlcNAc = target: Gal6S(b1-3)GlcNAc
Procedure, shortened: as §1

Gal6S(b1-3)GlcNAc6S = target: Gal6S(b1-3)GlcNAc6S
Procedure, shortened: as §1

Gal6S(b1-4)Glc = target: Gal6S(b1-4)Glc
Procedure, shortened: as §1

Gal6S(b1-4)Glc6S = target: Gal6S(b1-4)Glc6S
Procedure, shortened: as §1

Gal6S(b1-4)GlcNAc = target: Gal6S(b1-4)GlcNAc
Procedure, shortened: as §1

Gal6S(b1-4)GlcNAc6S = target: Gal6S(b1-4)GlcNAc6S
Procedure, shortened: as §1

GalNAc(a1-3)Gal = target: GalNAc(a1-3)Gal
Procedure, shortened: as §1

GalNAc(a1-3)GalNAc = target: GalNAc(a1-3)GalNAc
Procedure, shortened: as §1

[4] = target: GalNAc(a1-3)GalNAc(b1-3)Gal(a1-4)Gal(b1-4)Glc
Procedure, shortened: as §1

[5] = target: GalNAc(a1-3)GalNAc(b1-3)Gal(a1-4)Gal(b1-4)GlcNAc
Procedure, shortened: as §1

GalNAc(b1-3)Gal = target: GalNAc(b1-3)Gal
Procedure, shortened: as §1

[6] = target: GalNAc(b1-3)Gal(a1-4)Gal(b1-4)GlcNAc
Procedure, shortened: as §1

[7] = target: GalNAc(b1-3)Gal(a1-4)Gal(b1-4)GlcNAc(b1-3)Gal(b1-4)Glc
Procedure, shortened: as §1

[8] = target: GalNAc(b1-3)Gal(a1-6)Gal(b1-4)Glc
Procedure, shortened: as §1

GalNAc(b1-3)GalNAc = target: GalNAc(b1-3)GalNAc
Procedure, shortened: as §1

GalNAc(b1-3)GlcNAc = target: GalNAc(b1-3)GlcNAc
Procedure, shortened: as §1

GalNAc(b1-4)Gal(b1-4)Glc = target: GalNAc(b1-4)Gal(b1-4)Glc
Procedure, shortened: as §1

GalNAc(b1-4)GlcNAc = target: GalNAc(b1-4)GlcNAc
Procedure, shortened: as §1

[9] = target: GalNAc(b1-4)GlcNAc(b1-2)Man
Procedure, shortened: as §1

[10] = target: GalNAc(b1-4)GlcNAc(b1-2)Man(a1-3)[GalNAc(b1-4)GlcNAc(b1-2)Man(a1-6)]Man(b1-4)GlcNAc(b1-4)GlcNAc
Procedure, shortened: as §1

[11] = target: GalNAc(b1-4)GlcNAc(b1-3)GalNAc(b1-4)GlcNAc
Procedure, shortened: as §1

GalNAc(b1-4)GlcNAc6S = target: GalNAc(b1-4)GlcNAc6S
Procedure, shortened: as §1

GalNAc(b1-6)GalNAc = target: GalNAc(b1-6)GalNAc
Procedure, shortened: as §1

GalNAc3S(b1-4)GlcNAc = target: GalNAc3S(b1-4)GlcNAc
Procedure, shortened: as §1

GalNAc3S(b1-4)GlcNAc3S = target: GalNAc3S(b1-4)GlcNAc3S
Procedure, shortened: as §1

[12] = target: GalNAc3S(b1-4)[Fuc(a1-3)]GlcNAc
Procedure, shortened: as §1

GalNAc4S6S(b1-4)GlcNAc = target: GalNAc4S6S(b1-4)GlcNAc
Procedure, shortened: as §1

GalNAc6S(b1-4)GlcNAc = target: GalNAc6S(b1-4)GlcNAc
Procedure, shortened: as §1

Glc(a1-4)Glc = target: Glc(a1-4)Glc
Procedure, shortened: as §1

[13] = target: Glc(a1-4)Glc(a1-4)Glc(a1-4)Glc
Procedure, shortened: as §1

Glc(a1-6)Glc(a1-6)Glc = target: Glc(a1-6)Glc(a1-6)Glc
Procedure, shortened: as §1

[14] = target: Glc(a1-6)Glc(a1-6)Glc(a1-6)Glc
Procedure, shortened: as §1

Glc(b1-4)Glc = target: Glc(b1-4)Glc
Procedure, shortened: as §1

B1: Si Bti9 1b-HA (Solanum lycopersicum) (protein)
chain: MFESRPRSVLSLGVFVILVYLSSVPLPVNSQCNRGCDLALASFYVWRGSNLTLISEMFSTSIADIVSYNNRDNIPNQDSVIAGTRINIPFRCDCLNDGEVLGHAFPYRVKSGDTYDLVARNYSDLTTAQWMMKFNSYPENNIPNTVNLSVVVNCSCGNSDVSKDFGLFVTYPVRAEDNLTSVASAANVSEDIIRRYNPAAVSILDIGQGIIYIPGRDRNGNFPPLPTSTDGLSGGAKAPLFFNPAFLYKVVELKLAGRSRTSGYPYDVPDYAGYPYDVPDYALEVLFQ
glycan array binding signal (z-score) (Gal3S(b1-4)Glc): 2.57 | glycan array binding signal (z-score) (Gal3S(b1-4)Glc6S): 1.4 | glycan array binding signal (z-score) (Gal3S(b1-4)GlcNAc): -0.032 | glycan array binding signal (z-score) [1]: -0.11 | glycan array binding signal (z-score) [2]: -0.169 | glycan array binding signal (z-score) [3]: 1.12 | glycan array binding signal (z-score) (Gal3S4S(b1-4)GlcNAc): -0.107 | glycan array binding signal (z-score) (Gal3S6S(b1-4)GlcNAc): -0.308 | glycan array binding signal (z-score) (Gal3S6S(b1-4)GlcNAc6S): -0.206 | glycan array binding signal (z-score) (Gal4S(b1-4)GlcNAc): -0.358 | glycan array binding signal (z-score) (Gal4S6S(b1-4)GlcNAc): -0.541 | glycan array binding signal (z-score) (Gal6P(b1-4)GlcNAc): 1.29 | glycan array binding signal (z-score) (Gal6S(b1-3)GlcNAc): -0.431 | glycan array binding signal (z-score) (Gal6S(b1-3)GlcNAc6S): -0.215 | glycan array binding signal (z-score) (Gal6S(b1-4)Glc): -0.456 | glycan array binding signal (z-score) (Gal6S(b1-4)Glc6S): 0.052 | glycan array binding signal (z-score) (Gal6S(b1-4)GlcNAc): -0.69 | glycan array binding signal (z-score) (Gal6S(b1-4)GlcNAc6S): -0.401 | glycan array binding signal (z-score) (GalNAc(a1-3)Gal): -0.495 | glycan array binding signal (z-score) (GalNAc(a1-3)GalNAc): -0.348 | glycan array binding signal (z-score) [4]: -0.378 | glycan array binding signal (z-score) [5]: -0.179 | glycan array binding signal (z-score) (GalNAc(b1-3)Gal): 0.977 | glycan array binding signal (z-score) [6]: 0.138 | glycan array binding signal (z-score) [7]: -0.491 | glycan array binding signal (z-score) [8]: -0.183 | glycan array binding signal (z-score) (GalNAc(b1-3)GalNAc): -0.227 | glycan array binding signal (z-score) (GalNAc(b1-3)GlcNAc): -0.209 | glycan array binding signal (z-score) (GalNAc(b1-4)Gal(b1-4)Glc): 1.15 | glycan array binding signal (z-score) (GalNAc(b1-4)GlcNAc): -0.116 | glycan array binding signal (z-score) [9]: -0.452 | glycan array binding signal (z-score) [10]: 0.635 | glycan array binding signal (z-score) [11]: -0.01 | glycan array binding signal (z-score) (GalNAc(b1-4)GlcNAc6S): -0.204 | glycan array binding signal (z-score) (GalNAc(b1-6)GalNAc): -0.608 | glycan array binding signal (z-score) (GalNAc3S(b1-4)GlcNAc): -0.59 | glycan array binding signal (z-score) (GalNAc3S(b1-4)GlcNAc3S): -0.336 | glycan array binding signal (z-score) [12]: -0.449 | glycan array binding signal (z-score) (GalNAc4S6S(b1-4)GlcNAc): -0.286 | glycan array binding signal (z-score) (GalNAc6S(b1-4)GlcNAc): -0.519 | glycan array binding signal (z-score) (Glc(a1-4)Glc): 0.127 | glycan array binding signal (z-score) [13]: 0.208 | glycan array binding signal (z-score) (Glc(a1-6)Glc(a1-6)Glc): 0.168 | glycan array binding signal (z-score) [14]: -0.061 | glycan array binding signal (z-score) (Glc(b1-4)Glc): 0.238
